The source of these data is publication PMC7819943, “Rice protein-binding microarrays: a tool to detect cis-acting elements near promoter regions in rice”.

The other results are listed elsewhere or left out.

This test addresses T1, OsWOX13 (Oryza sativa, UniProt Q5QMM3 1-267).
T1 sequence: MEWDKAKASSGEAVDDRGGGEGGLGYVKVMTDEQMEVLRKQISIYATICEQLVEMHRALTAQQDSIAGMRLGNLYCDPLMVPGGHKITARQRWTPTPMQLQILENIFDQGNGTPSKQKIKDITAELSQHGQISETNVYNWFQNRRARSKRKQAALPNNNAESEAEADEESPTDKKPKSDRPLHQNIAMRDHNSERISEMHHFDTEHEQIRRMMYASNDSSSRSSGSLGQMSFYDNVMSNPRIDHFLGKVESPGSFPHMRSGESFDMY
Kind of test: protein-binding microarray (RPBM); PBS, 2% BSA, 51.3 ng/ul salmon testes DNA, 50 uM zinc acetate, 200 nM TF, 25 C, 1 h; high values mean tight binding. To be noted: protein: recombinant; tags: N-terminal polyhistidine and DsRed monomer fusion (pET32a); label: CyDye5-dUTP incorporated in the synthesized complementary strand; 3' TTTTT single-stranded linker to array surface; dsDNA, one strand shown. A digest of the protocol:
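Binding signal here means per-feature fluorescence intensity in arbitrary units. The values were read on an Axon 4000B scanner after a custom Agilent array, double-stranded by primer extension with Cy5-dUTP, was incubated with 200 nM protein at 25 °C for 1 h in PBS with 2% BSA, salmon testes DNA and 50 µM zinc acetate, then washed. The proteins were transcription factors with an N-terminal polyhistidine tag and DsRed, expressed in E. coli BL21-CodonPlus and purified on Ni–NTA.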
For “CCAAAACATAAAATTAAAACTGACTTAAATACGGATGATACGGAGTCACCTAGTGCAG”, the binding signal is 3740 fluorescence intensity (a.u.). In the case of “TGATGGGAAAACTTTAAAATTAATTTTGAATTTAAGGTTGCGGAGTCACCTAGTGCAG” it was 4960 fluorescence intensity (a.u.). In the case of “AAGTGATTGTCCCTACAGCTGCATATCTTTCACTCCTTTACGGAGTCACCTAGTGCAG” it was 9690 fluorescence intensity (a.u.); in that of “GATAATGGTAGTGATTGGTTGAGGCTTGAGAGTAGATGTACGGAGTCACCTAGTGCAG”, 30600 fluorescence intensity (a.u.); in that of “AACTAACCACTAAATTGCTAGGATTAGTACAGGACGGGAACGGAGTCACCTAGTGCAG”, 6570 fluorescence intensity (a.u.). For the sequence “TATATAATATAATTTTAAATTGTAAAATTATAGAGCTAACCGGAGTCACCTAGTGCAG”, the binding signal is 16200 fluorescence intensity (a.u.). In the case of “TTTGATTTGTATTCTGGGTTTCTGGATGTAAATTTGAATACGGAGTCACCTAGTGCAG”, the binding signal is 21500 fluorescence intensity (a.u.).

Turning to “CTATTTTAATTTTATTATTGTTATATGGTTTAGCTAAGAACGGAGTCACCTAGTGCAG”, the binding signal was 3550 fluorescence intensity (a.u.). In the case of “TCTCGTAATAGTGTTTAATTAGATTCATTAATCCTTAATTCGGAGTCACCTAGTGCAG” it was 9590 fluorescence intensity (a.u.). The figure for “TGGGTATAAATTTAGTTCGTAAACTTAATAAATGTGTGCACGGAGTCACCTAGTGCAG” is 5080 fluorescence intensity (a.u.); for “TTTAATTAACAAGTCGTCTCCTCCTCATCCATCCACCACACGGAGTCACCTAGTGCAG” it is 18400 fluorescence intensity (a.u.). In the case of “TGATGATTTTAACTATCTTTTCTCTGACAAGTTCCTTCGACGGAGTCACCTAGTGCAG” it was 11000 fluorescence intensity (a.u.); in that of “TAATATTTAAATTAAACCTATAATCAAGCAGATGATTTATCGGAGTCACCTAGTGCAG”, 8840 fluorescence intensity (a.u.); in that of “CCAGCAATCCCAATCCCAGAAATTGAATGAATAGTCTTCTCGGAGTCACCTAGTGCAG”, 4070 fluorescence intensity (a.u.). Consider “CACAGTCCTAATTTCTATAGAACTAATCTACTCGTCCGTCCGGAGTCACCTAGTGCAG”, for which the binding signal is 3270 fluorescence intensity (a.u.).

As for “GTATTTGTATGATTGTATCCGTATCTGTACCATCCTAATGCGGAGTCACCTAGTGCAG”, the binding signal is 3250 fluorescence intensity (a.u.).

Consider “ACCCACCCTTCAATTAGCCTGTGAATTACTACTTTCTAATCGGAGTCACCTAGTGCAG”, for which the binding signal is 7460 fluorescence intensity (a.u.). The figure for “AGTAATTAAAATTTAAGAGGCAAAATTACGTGTGAATTTGCGGAGTCACCTAGTGCAG” is 19600 fluorescence intensity (a.u.); for “TTCATATAATTTATAAGGGACATAATGTAATCACCCTATACGGAGTCACCTAGTGCAG” it is 10300 fluorescence intensity (a.u.); for “TGTGATTGTCGAAGGAAGGCAGCAAAACGGTTCGAGGGTGCGGAGTCACCTAGTGCAG” it is 25300 fluorescence intensity (a.u.). The figure for “ACTATTTGTCAATCATACTTCTTTCATGATATTCATTTTGCGGAGTCACCTAGTGCAG” is 23500 fluorescence intensity (a.u.). Take “ACCAACTAATTGCGCAATCTAACACTCGATCGAGGGCTGTCGGAGTCACCTAGTGCAG”: the binding signal is 28900 fluorescence intensity (a.u.). “ATTTCTGATTGGTGAGATGGGTGATTCGGTAGGCCATTGGCGGAGTCACCTAGTGCAG”: the binding signal is 40100 fluorescence intensity (a.u.). Consider “CTGATGACAATACTGAACAGTCACTCAGGGAAGACCGTGGCGGAGTCACCTAGTGCAG”, for which the binding signal is 3800 fluorescence intensity (a.u.).

Consider “AATATATGATTAGTTGAGTATTAATTATTTTAAATTTCAACGGAGTCACCTAGTGCAG”, for which the binding signal is 21900 fluorescence intensity (a.u.).

As to “AAAATTATGGATTGGATGATTAATCACTGATAGGTAGTACCGGAGTCACCTAGTGCAG”, the binding signal was 56900 fluorescence intensity (a.u.).

With “ACAAATTGGTCACTGGCTGAATAGTTTCTACATCAGTTAACGGAGTCACCTAGTGCAG”, the binding signal is 6570 fluorescence intensity (a.u.). The figure for “GAACTAATATACTTTCATCAATTTAACAAATAACAAATTCCGGAGTCACCTAGTGCAG” is 3600 fluorescence intensity (a.u.). For “TTAAATGACTAATAATGGACTTTCTCCTAATCAAATCGTGCGGAGTCACCTAGTGCAG”, the binding signal was 20300 fluorescence intensity (a.u.).

As for “TGATTAAAATTGACATTAAAATTATAGTTTTGTGATGACTCGGAGTCACCTAGTGCAG”, the binding signal is 19100 fluorescence intensity (a.u.). The figure for “GTCTTAATTGTTCCTCATGTGTTTGTATGTTGTCTGGATTCGGAGTCACCTAGTGCAG” is 36100 fluorescence intensity (a.u.); for “CCCTAATTCCATTCGATTTCATTCGTACTTGTGTTGTTCGCGGAGTCACCTAGTGCAG” it is 7030 fluorescence intensity (a.u.). Consider “CTAATTTAAATTTGTCTCTTTTCTACCCTCAACCATCATTCGGAGTCACCTAGTGCAG”, for which the binding signal was 27200 fluorescence intensity (a.u.).

With “TTAATGATTTTATTTGAATGGATCAGGGTCCAATTTGCTGCGGAGTCACCTAGTGCAG”, the binding signal is 24500 fluorescence intensity (a.u.).

Turning to “AGTTTGTAATAATTAAAACTCAATTAATCACATGTTATTACGGAGTCACCTAGTGCAG”, the binding signal was 11600 fluorescence intensity (a.u.). The figure for “GTAGATTTGTGGACAGGAAATGCAGCTCCTGAACTCATGGCGGAGTCACCTAGTGCAG” is 6520 fluorescence intensity (a.u.).

On to “AGCAAAGGAGCAATTAACTGACAAGAGCCAGCGCGGCGTGCGGAGTCACCTAGTGCAG”, for which the binding signal was 3500 fluorescence intensity (a.u.). The figure for “GTCTGATAGATCCATTACGAGGGTCAACTTTGAATCAAAGCGGAGTCACCTAGTGCAG” is 19900 fluorescence intensity (a.u.); for “AGCAATTAAGAAACACTATAATGGACACTAAATTACCATACGGAGTCACCTAGTGCAG” it is 4070 fluorescence intensity (a.u.). Take “GCCTTAATATGAACCAATTAAAAGGAGGGCTAGCTTGATGCGGAGTCACCTAGTGCAG”: the binding signal was 9470 fluorescence intensity (a.u.).

As to “CACAAAATTGTTTTATGCAAACATTTATTTGTAAGACATCCGGAGTCACCTAGTGCAG”, the binding signal was 3790 fluorescence intensity (a.u.). The figure for “ACTCCCTATCAATTTTCATCTCCTCTACTAAATAAGATATCGGAGTCACCTAGTGCAG” is 7250 fluorescence intensity (a.u.).
